Measurements taken from article PMC10726135.
This is one part of the list. At the low end of the ranking, values are background and their order means little. The protein was read in a cell extract, so binding may be indirect.

target: T1, HNF4alpha2 (COS-7 nuclear extract) (UniProt P41235); assay: protein-binding microarray; conditions: COS-7 nuclear extract on double-stranded Agilent 4x180k PBM; binding buffer, salt, pH and temperature not given; high values mean tight binding; double strand, one strand shown; sequences stand for … in …GCCTAGGGAGATTAGAGTATCGGTCGA
T1 sequence: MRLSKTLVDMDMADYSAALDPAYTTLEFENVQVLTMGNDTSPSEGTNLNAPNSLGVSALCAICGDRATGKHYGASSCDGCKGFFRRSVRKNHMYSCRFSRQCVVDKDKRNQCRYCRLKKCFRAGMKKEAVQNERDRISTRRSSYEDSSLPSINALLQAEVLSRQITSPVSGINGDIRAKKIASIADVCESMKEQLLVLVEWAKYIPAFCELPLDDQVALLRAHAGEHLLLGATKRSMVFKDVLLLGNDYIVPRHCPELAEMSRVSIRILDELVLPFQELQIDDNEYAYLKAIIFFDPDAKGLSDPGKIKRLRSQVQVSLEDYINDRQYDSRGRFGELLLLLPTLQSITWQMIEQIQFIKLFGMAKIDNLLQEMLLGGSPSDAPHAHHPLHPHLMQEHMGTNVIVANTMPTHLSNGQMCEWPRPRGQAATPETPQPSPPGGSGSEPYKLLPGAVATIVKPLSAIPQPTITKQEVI

| Sequence | binding signal (log2 normalized intensity) |
| --- | --- |
| TTCTCCAGCTGCTGTAAGGTTACTGAGGGC | 0.386 |
| GCGGCATTCCTGTCAAAATCTGATCTTTCC | 1.45 |
| GAACAATTATTGCCTGGCATCTAACCTTCG | 0.557 |
| TAGACAAATTTGTTTACTTCTGTCTCCAGA | -1.19 |
| TATGGATAGGCACATATTGGATCTCTGGTA | 0.865 |
| AGGGCAAAAGGGCAAAACTGTCACAAGAAA | 0.982 |
| TACGCTGGGCAATAAGCATTCTGTTTCCTA | -0.931 |
| CAAATTGGATGTTGAACCTCTGTCCTTGGC | 2.25 |
| TGTTGGAGTTCTAAGAGCCTACTGAGAGGA | -1.19 |
| AACACAGGTGACCTTTGCTCCGGTTCCCAA | 6.26 |
| GCATCTTATCTGAATCTGGAATCACGTTCG | 1.19 |
| GAAGACTTCATGATAACACTTCCCAAGCAT | -1.15 |
| GATGTCTCTCATTGGAATGAGCCTCCTGAA | 0.306 |
| GGCAGCCTTCGTTTGCTTTTCCTTATCATC | -0.749 |
| CTTGGCAAGGGGAGGCACTCATGGTGTTTG | 0.674 |
| CTTTAGCTCCTGGGCCCAGATATACAAGAA | 0.542 |
| AAGAAAAGCCTTGTGGCAGTGAGAACAGGT | 0.143 |
| ATCTTGATTACTATAGGGCAAATGGAAGAA | 0.925 |
| GTGTTGTGACTACCTGGTTAAAAGGACAAC | 0.125 |
| GTCTGACCAACCTGTCCAAAGGTCATCTGT | 7.04 |
| AAGATCTGTGAAAGAAAAGTACTTTAGTGT | 1.6 |
| TGGCGCCATTTCAGGTCCACCAAGGTGGTG | -0.658 |
| CTCCCACATGCTGTCTAGGCCAGAGTTCAC | 2.29 |
| CCCTGACTAAATTCTTGTCAATGACCCTAA | 3.43 |
| AAATCTGCACTTTACGTAAGATAAGGTGAA | -0.241 |

| Sequence | binding signal (log2 normalized intensity) |
| --- | --- |
| CAGTTGACATGATACCTTCCTGAATGCCTA | -0.905 |
| CAGCATAGAAAACAAGTTAGACAGTGCCTA | -1.21 |
| TTCTTTTTTTTTTTTTTTTTTTTTTGAGAT | 3 |
| AGGAGCCTCTGCAACCTTTGCTCTCCCTCC | 4.51 |
| TGAGAGATTAAACATGCTCTGCATACCTGC | -1.07 |
| GCAGATGGTTTCATCTGGTTTCTGTTTGAG | 1.45 |
| CAGTTTGGACTTTGATCCTGATGACTGCAG | 7.49 |
| CTCCTTCATCTTCAAAGCCAGCAATGGCAG | -0.267 |
| ATTACAACCAAAGGAATTTAGCCTTTAACC | 2.2 |
| CCTCACTTATCACATTCTGCTCTTGAACCA | 0.488 |
| CGTGGTTCAGGGAGCGAATAAATACATAAA | -0.979 |
| ATGCAACACAGGGGGAGGAATGCTGACCTC | 2.66 |
| GCGCCTTGCGAGCGTACGCAGGGCGGCCGG | 0.55 |
| TGACTCAGTCTTACTTGACAATTACATAGT | 0.692 |
| GGGTGCTGCCTTTCCTGTGACTTTTGGCCA | 3.42 |
| CTGACAGGATGAATTTATTGCCCTCAGGGT | 1.97 |
| AGCCCTAAAGACCACTGGGCTTTCACAAGG | -1.15 |
| CCGTCACTGCAAGGCAAACACTCAAGGTCC | -0.943 |
| GAGCACAGGGTCAGCAGATCTTTGTTAACA | 0.301 |
| AGTCTGTCTTGCTGTTTTTCCAGTTTTTGT | 1.59 |
| TCAAAGGTGGAGATAACAAACTTGATTGGG | -0.96 |
| TATCAGGGAGATAGTCTGAGAGTCACTGCC | -0.707 |
| TGTTGACATCTTGATTTAGCCCAGTGAGAC | 1.28 |
| ATGGAACAAGCCAGGTGTGCAGAGAGCAAA | -1.26 |
| AGATGGGGTGAACTTTGGACCACATATAGA | 7.14 |

| Sequence | binding signal (log2 normalized intensity) |
| --- | --- |
| GAGAGAAATTGCTTAAGTGCTTGTCAGTTT | 1.04 |
| GTAGACTAAAACCCATATCTGACTGATGCT | -1.11 |
| ATGGCAGACGGGGCTCTCAGAATCTGCCGA | -0.81 |
| GATTGCGCCACTGCATTCCAGCCTGGGGCA | -1.17 |
| GTGTGTCTGTAGTTTTCGTTGTCTAATCCT | 1.75 |
| TGGCCAGTATCCGCCTTCACTCCCCTGACA | 2.4 |
| TTCCTTCGGGATTATGGTAGGCAGCCTCTG | -1.04 |
| TGCAAGGCTGTTGGCAGATTAGATATATCT | 0.232 |
| AAGGTGAAGCCCAGCAGCTCCAGGAGACGT | -0.905 |
| GCACGTTAGAGAAAAAGCCCAAGAAACTTC | -1.08 |
| GTCACTGTATGCCCGAAAGACGCGGAGCGG | 0.97 |
| TTTGAGGGCTCAAAGGTTACCACCCAGGAG | 3.41 |
| CTTGGCTGTGTCCCTTGACCAAAGGTCACT | 6.77 |
| GCAATAAACTCCGTTATCACTCCTGGTTGG | -0.602 |
| CTCAGTATGGCAACCTTTGTCCTGCTGAGG | 3.72 |
| AGGCTCAGTGGGCGTTGACTGATCCCTCTG | 0.757 |
| ATGGCTGCAGCTCTTCCACGTGAGATAAGC | -0.809 |
| TGGAATACAGCAGGGTAGAAAAGAGTTAAA | -0.339 |
| AAGGAATAAAATAGCTGCCTGTGTGTTCTG | 0.95 |
| TATGTGCTGACTGACTCCTGTTACTTCCAC | 0.99 |
| AGATAAATGCCTTAGCTGTGACCATCTCCT | -1.21 |
| AGTCTAACTTTGGACTTTTATGTTAAGATC | 2.25 |
| GTGCTGACTAAGAGGAGAAGCAAATGAAAA | -1.17 |
